Measured values as given in the BET-seq Pho4 binding data (Le et al. 2018).
This is one part of the list. These are noisy estimates, calculated here from bound and input reads.

Molecular target: T1, Pho4 (S. cerevisiae) (UniProt P07270)
T1 sequence: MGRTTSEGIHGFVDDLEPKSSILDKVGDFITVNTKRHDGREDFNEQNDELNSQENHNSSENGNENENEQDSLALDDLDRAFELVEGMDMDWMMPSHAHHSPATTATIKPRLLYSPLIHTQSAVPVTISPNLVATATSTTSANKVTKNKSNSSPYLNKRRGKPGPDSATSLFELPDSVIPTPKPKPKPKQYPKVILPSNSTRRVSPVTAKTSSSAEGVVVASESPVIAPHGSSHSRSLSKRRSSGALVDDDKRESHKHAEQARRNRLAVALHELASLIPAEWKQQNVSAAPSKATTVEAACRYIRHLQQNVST
Assay: relative binding free energy (BET-seq); higher = weaker binding
Conditions: reference: library average

Row | Sequence | relative binding free energy [kcal/mol]
1 | CCTGTCACGTGGGCTG | 0.05
2 | GAGGGCACGTGTGATA | -0.05
3 | GTGCGCACGTGACGGG | 0.12
4 | TATTACACGTGGGAAG | -0.03
5 | GGAGTCACGTGATTTG | 0.44
6 | GTTATCACGTGAGGTA | 0.37
7 | TAGACCACGTGGGGAG | -0.11
8 | TGCGTCACGTGTTGGG | 0.09
9 | GGTGGCACGTGATTTT | 0.25
10 | TCGTGCACGTGTGTTC | 0.05
11 | GGAAACACGTGATTGT | 0.08
12 | TGTTCCACGTGCGGTT | 0.04
13 | ATATGCACGTGGGTCT | -0.2
14 | ATGTGCACGTGCTCGT | -0.2
15 | GGGTACACGTGGGTTA | -0.01
16 | ATGGGCACGTGATTAT | 0.12
17 | TGTGCCACGTGATTGA | 0.07
18 | TCGTGCACGTGCTGTA | -0.03
19 | CTGGTCACGTGCGTTT | 0.04
20 | TAGGGCACGTGCAAGG | -0.16
21 | ATACTCACGTGTTTTT | 0.13
22 | ATTTACACGTGCATGG | 0.17
23 | TTAACCACGTGGTGGG | -0.1

Row | Sequence | relative binding free energy [kcal/mol]
24 | TGGTGCACGTGCCCGG | -0.23
25 | GTTGACACGTGGAACG | 0.14
26 | CGTGACACGTGTTGGA | -0.04
27 | CTTTCCACGTGTTGGT | 0.11
28 | TTGTCCACGTGAGGTT | 0.19
29 | TTGTGCACGTGTTGCA | 0.05
30 | AATGACACGTGAAGTG | 0.3
31 | TAGGTCACGTGTCGGT | 0.11
32 | TAGTTCACGTGAAATT | 0.45
33 | CAAGTCACGTGTTAGG | 0.19
34 | TCATGCACGTGAATTG | 0.33
35 | GTGAACACGTGGGCGG | -0.16
36 | TTATTCACGTGCAAGG | 0.35
37 | TGATGCACGTGGATGC | -0.1
38 | TGTGTCACGTGTGATG | 0.16
39 | AGTGCCACGTGTTATT | -0.14
40 | GTCTACACGTGGGTAT | 0.02
41 | GTATGCACGTGGTGGA | -0.05
42 | ATAGCCACGTGGGTAG | -0.27
43 | CGGGGCACGTGGCAGC | -0.14
44 | GGGCACACGTGAACGG | 0.32
45 | GAAGACACGTGGCGTG | -0.05
46 | TTTTACACGTGGATCG | 0.22

Row | Sequence | relative binding free energy [kcal/mol]
47 | AGGGGCACGTGGACTA | -0.12
48 | AATTTCACGTGGTGGA | 0.2
49 | GTGGACACGTGTTGAC | 0.07
50 | TGTAACACGTGCGTGA | 0.02
51 | GGGTACACGTGTAGTA | 0.22
52 | AGTCGCACGTGCGTTT | 0.03
53 | GTGTGCACGTGCGTCT | -0.01
54 | TAGTTCACGTGTAGTG | 0.11
55 | CTGTTCACGTGTGCTG | 0.17
56 | ATTTGCACGTGTTCTA | -0.17
57 | GTGGGCACGTGGGCAT | -0.14
58 | CGTGGCACGTGAGATT | 0.18
59 | TGGGTCACGTGGACGG | 0.03
60 | CGTTTCACGTGGTATG | 0.23
61 | AGATTCACGTGACTGT | 0.33
62 | TGTAGCACGTGGAATA | -0.04
63 | CCTTTCACGTGGGTTG | 0.19
64 | TCATACACGTGTGTGT | -0.2
65 | GCATTCACGTGGATGG | 0.27
66 | CGGAACACGTGGCGGT | 0.05
67 | TGACACACGTGGTTGT | -0.08
68 | TAATGCACGTGTTGGC | 0.07
69 | GGTATCACGTGGCTAT | 0.13

Row | Sequence | relative binding free energy [kcal/mol]
70 | CAGGACACGTGGAGTG | 0.02
71 | ATCGGCACGTGTTTAA | -0.02
72 | TAGATCACGTGGTGTT | 0.05
73 | AGGATCACGTGAGGTA | 0.22
74 | GGCGACACGTGGGCGG | -0.02
75 | TACAGCACGTGGGGGA | -0.19
76 | AAAACCACGTGTTGGG | 0.19
77 | TGGAACACGTGGGTAG | -0.08
78 | CGCGTCACGTGTCTGG | 0.17
79 | TGGGGCACGTGGACTG | -0.14
80 | TTTTTCACGTGCGAGA | 0.34
81 | CGGCGCACGTGTGGGA | -0.21
82 | ATTATCACGTGGTATA | -0.08
83 | GGGTCCACGTGGGGCG | -0.08
84 | TTTGGCACGTGCGGGG | -0.09
85 | GGGTGCACGTGTGTCC | 0.02
86 | GCCAGCACGTGGGGTG | -0.39
87 | GGCTTCACGTGGTGGT | 0.31
88 | ATTGTCACGTGTGTGT | 0.07
89 | TTGTACACGTGAGGTT | 0.14
90 | TCTATCACGTGAAGGG | 0.47
91 | ATATGCACGTGGTTAT | -0.15
92 | TGAAGCACGTGAGATA | 0.31

Row | Sequence | relative binding free energy [kcal/mol]
93 | GGCGTCACGTGTATGA | 0.1
94 | AGTGACACGTGAGTAA | 0.35
95 | TGTCTCACGTGTGTAG | 0.16
96 | CTAGGCACGTGATTGG | 0.03
97 | TTGCTCACGTGATGTA | 0.26
98 | GTTGGCACGTGGATTA | 0.05
99 | AGTCTCACGTGGTCTT | 0.19
100 | TAGGTCACGTGGATAC | 0.18
101 | TGTTGCACGTGTTTGC | -0.07
102 | GGGCGCACGTGGTTCT | -0.02
103 | TAGTCCACGTGTAAGG | 0.13
104 | GGTCTCACGTGGTGCT | 0.26
105 | TTCGGCACGTGGATGT | 0.01
106 | GGTGTCACGTGAGATT | 0.28
107 | TCTTTCACGTGATGAG | 0.49
108 | GTATGCACGTGGTCAT | -0.24
109 | ATGATCACGTGGGGGG | 0.14
110 | AGGTTCACGTGCTGAG | 0.29
111 | TCTCACACGTGGGGGG | -0.01
112 | TTACGCACGTGGATTG | -0.08
113 | AGTTGCACGTGGGGAG | -0.02
114 | GCGGACACGTGTCGGG | 0.08
115 | AGCGGCACGTGAATGG | 0.23
